Test results published in the supplement of paper PMC3334620.
Whole data set: some 33,000 sequences, median “E-score (-0.5 to 0.5)” near -0.017, cut for the highest 2% near 0.3. This is one part of the list.

Target: T1, Sut1 (UniProt P53032)
T1 sequence: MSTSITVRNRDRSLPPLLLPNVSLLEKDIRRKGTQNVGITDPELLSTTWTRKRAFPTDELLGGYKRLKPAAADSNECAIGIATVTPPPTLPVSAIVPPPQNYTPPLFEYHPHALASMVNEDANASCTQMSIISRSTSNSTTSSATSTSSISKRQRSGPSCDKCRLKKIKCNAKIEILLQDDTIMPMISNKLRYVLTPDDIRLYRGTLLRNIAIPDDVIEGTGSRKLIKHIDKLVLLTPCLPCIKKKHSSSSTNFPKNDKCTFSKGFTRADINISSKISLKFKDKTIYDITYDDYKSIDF
Assay: PBM E-score (8-mer binding enrichment) (E-score (-0.5 to 0.5)); higher = stronger / more preferred TF binding; most listed sequences are background and not binding sites
Settings: protein concentration: 200 nM; construct: GST-full length
Method: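 Universal 'all 10-mer' protein binding microarrays (Agilent AMADID 015681) probed with GST-tagged S. cerevisiae TFs (full-length or DBD) made by in vitro transcription/translation (PURExpress), about 100-200 nM. Bound TF was detected with fluorescent anti-GST. Each ungapped 8-mer (which stands for itself and its reverse complement) is scored by the PBM enrichment score (E-score), a modified Wilcoxon-Mann-Whitney statistic from -0.5 to +0.5, computed with the Universal PBM Analysis Suite. Scale: above 0.35 generally sequence-specific binding.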

Sequence	PBM E-score
ACCATATG	-0.0878
TAGCCCCA	-0.121
CTTTGCTA	-0.0601
CGCCGTAA	0.0597
GCGTTTAC	-0.0629
AAGTCCCT	-0.131
GGAGAAGA	0.00674
TCCCCTCA	-0.188
AGGAGAGG	-0.264
AGGCAGGG	-0.133
ATAGGAAT	0.0366
CAGCGAGC	-0.155
GAAGCCCC	-0.24
GAAATACC	0.138
CAGCATGG	-0.251
CTTCATGA	0.0102
ATATGACC	-0.121
AGCCCGCC	-0.168
GAACGCTC	-0.157
AGCAATCA	0.0713
ACGCACCC	-0.254
CTACGTTC	-0.103

Sequence	PBM E-score
ATCAGAAT	0.0989
CTCTGTAC	-0.079
GTCTCCAA	-0.0301
CCTCCTAC	-0.165
GTACTAAA	0.266
CCGACGTA	-0.0314
ACACTAAC	0.168
CACACCCA	-0.114
ACTAGTGC	0.0535
ATTTTTGG	-0.0383
CGATAGAC	-0.206
ATCGCCCC	-0.291
CTTACTAC	0.0954
CAGGACTG	-0.291
GGAGGGAC	-0.137
CACCCGGA	0.251
CCCCGGAC	0.357
CAACGGAG	0.399
CCACTCAG	-0.159
CTTACAGC	-0.179
GTCGTCTA	0.0145
AGTAAACA	0.235

Sequence	PBM E-score
AGGCCTCA	-0.304
CAAGAAGC	0.0616
CGAACGCG	-0.115
TCCCTCGA	-0.267
CGTTTCGC	0.0561
GCAACTAA	0.146
AGGGGACT	-0.186
GAGTTAGC	0.121
ACCTTTGG	-0.287
GTGCGCAA	-0.122
ACTAACGA	-0.0331
CGTCGTGA	-0.203
GCCCCGCC	-0.145
CCTTCATA	0.131
ACTATGAA	0.176
ATGGGCGA	-0.235
CGCAGCTC	-0.0365
GGAGTCAC	0.21
GCCTTTCA	0.0144
ATGGCAGG	-0.136
GTCCGCAA	0.298
AGACAAGG	-0.0403

Sequence	PBM E-score
CGGCAGCA	-0.185
CGACTTCC	0.017
GCGCTTAA	-0.0252
TCGTGGCA	-0.0581
AGGTCGCG	-0.171
ACCTACCA	-0.0122
CGAGAGGC	-0.235
AAATACTC	0.157
GCGTCTAA	-0.155
ATGGCGGG	-0.11
CGCTAGAA	-0.109
AGTTGAGG	-0.0723
ACTTATCC	0.143
AAGGTTTC	0.156
GCCTGGAC	-0.336
ACCTGCTA	-0.134
GAGCTTGA	-0.0638
CGGAACCC	-0.0296
AGAGAAGG	-0.19
ATTGAATC	0.00919
